Laboratory results published in the RNAGym collection of RNA variant scans (doi:10.7554/elife.90254).
The source gives no read counts; variants with many changes may rest on few reads.

B1: LINE1-mini (parent)
chain: GGCAGAGCUCAACACAGCGUGGCAAAGUGGCUGUGGCUAGACUGCC

Variants of: B1
Test: self-cleavage, relative activity (ratio to wild type); higher = more cleavage; in vitro, sequencing; the parent is a self-cleaving ribozyme

| Variant | self-cleavage |
| --- | --- |
| G7C G22A G35U | 0.09 |
| G7C A16G C18U G35C | 0.01 |
| G7C G21A G22A A39U | 0.11 |
| G7C U9G C15G C31U | 0.01 |
| G7C G36A U38G | 0.02 |
| G7U A12U G29U G33A | 0.04 |
| G7C A12G G22A G44C | 0.01 |
| G7C U20C G22A U28A | 0.05 |
| G7C C8G C13G A16G C31G | 0.01 |
| G7C C8G U38G | 0.1 |
| G7U A11C C23A C37A | 0.02 |
| G7C U9C C10A | 0.03 |
| G7C U9C G27U C45U | 0.02 |
| G7C C8A G19A U20A | 0.11 |
| G7C C10A A16C G44U | 0 |
| G7C C8G C10A A16U A25U G27C | 0.02 |
| G7C C10A C15G C18U G30C U32G C37G | 0.01 |
| G7C U9A A39C | 0.33 |
| G7C U20C G44A C46U | 0.04 |
| G7U A14G A24U G30U | 0.21 |
| G7C G19U G30C | 0.03 |
| G7C U20A U43A | 0.19 |
| G7C A14U G22A U38G | 0.01 |
| G7U A12U C13G C18A G19A G27C | 0.29 |

| Variant | self-cleavage |
| --- | --- |
| G7C U9A A25G G40A | 0.03 |
| G7C U9A A26U G36C | 0.04 |
| G7C G22C C45A | 0.07 |
| G7C C31U G35U C37U | 0.02 |
| G7C G22C G35U | 0.02 |
| G7C C13A A25C U43A | 0.05 |
| G7C C13U A16C U20G G27A U28A | 0.02 |
| G7U A14C C15A C31A | 0.12 |
| G7C U9C C10G G30C | 0.02 |
| G7C G17U C37G | 0 |
| G7C C23A G35U G36U C42U | 0.08 |
| G7C U34G G44C | 0.01 |
| G7C C18U C31U U34C | 0.02 |
| G7C G19U G22C | 0.03 |
| G7C C13U C15U G17U | 0.05 |
| G7C A26C G30U | 0.03 |
| G7C A14U G40A | 0.34 |
| G7C C10A C18U G30A C31U | 0.03 |
| G7C C13A C15U C31U | 0.13 |
| G7C A41U G44A | 0.14 |
| G7U A11C C18U | 0.04 |
| G7U A14G G17A G27U A41C | 0.03 |
| G7C A14G C15A C23U A26U C37U | 0.04 |
| G7C G27U C42A | 0.02 |

| Variant | self-cleavage |
| --- | --- |
| G7C G27U C46G | 0.17 |
| G7C C13U A14U A25G G27A G44C | 0.05 |
| G7C A26G U34A | 0.05 |
| G7C G36A G44C | 0.02 |
| G7C A14U U38G | 0.01 |
| G7C A14G G21A | 0.04 |
| G7C C10A C46U | 0.01 |
| G7U A11G G27A | 0.03 |
| G7C C8G C10A A24G C37G U43A | 0.01 |
| G7C G27U G36A C37G | 0.01 |
| G7C C31G G44A | 0.03 |
| G7C C23A C46A | 0.01 |
| G7C G19A U38A | 0.03 |
| G7C A14U C15A | 0.16 |
| G7C A39C G40A A41C | 0.08 |
| G7U A12G C18U A25C G33U G35U | 0.04 |
| G7C G19A A26C | 0.03 |
| G7C G19A G22C G27C | 0.3 |
| G7U A12U G29U | 0.02 |
| G7C C15A G17U | 0.01 |
| G7C C18G G19C G33A | 0.03 |
| G7U A16G C18A | 0.31 |
| G7U A12G C15G G29U | 0.04 |
| G7C G36U A39G U43A G44A | 0.02 |

| Variant | self-cleavage |
| --- | --- |
| G7C G21A U32G | 0.42 |
| G7C C8A U9G A14C G21U | 0.02 |
| G7C G19C A24G C31U | 0.04 |
| G7C G17A G27C C31A C45U | 0.07 |
| G7C U32C C46A | 0.02 |
| G7C C18G G35A | 0.16 |
| G7U A11G G22U C23A G27U | 0.02 |
| G7C C10U C37G | 0.05 |
| G7C U28A G33C | 0.04 |
| G7C G19A G36A | 0.24 |
| G7C C10A G27A U32A | 0.02 |
| G7C A25G A41G | 0 |
| G7U A12G A16U C45U | 0.71 |
| G7C G19A G27U G33U C46A | 0.05 |
| G7U A11C G22A C37G | 0.02 |
| G7C C8A U9A C18G U20C C42G | 0.13 |
| G7C G36C C45A | 0.02 |
| G7C A26C U38C G44A | 0.15 |
| G7C C8U C15G U43A | 0.38 |
| G7C G17A C23A C42U | 0.13 |
| G7C C23U C37G | 0.02 |
| G7U A12C C46A | 0.01 |
| G7U A11G G29U A41G | 0.01 |
| G7C G35A C45G | 0.19 |

| Variant | self-cleavage |
| --- | --- |
| G7U A11C G17U C23A G40C A41U | 0.01 |
| G7C C8A G33C G40U | 0.02 |
| G7C C8A G17A U28C C46A | 0.74 |
| G7C C8G A25U G44C | 0.09 |
| G7C A14G G27U U32A | 0.25 |
| G7C A14C G35C | 0.03 |
| G7C C13U U32C C42A | 0.02 |
| G7C C10A G40A | 0.03 |
| G7U A11U G22U U28A C31G | 0.02 |
| G7U A11U G40A | 0.04 |
| G7U A14G C18G U20A G21C U38A C42U | 0.12 |
| G7C C15U G30U | 0.07 |
| G7C G17A C23U U34A A39G | 0.02 |
| G7C G19C C23G | 0.04 |
| G7C C8A G21C C23A | 0.17 |
| G7C A12G C13U C15U U34G | 0.03 |
| G7C C13G C37A A39U | 0.15 |
| G7C A25G U34A C46G | 0.02 |
| G7C U38C A39C | 0.14 |
| G7C A26C G33A G44U C45U | 0.02 |
| G7C C13A C42G | 0.09 |
| G7C A14G C45U | 0.07 |
| G7C C10G G17A G29A | 0.1 |
| G7C A24G A25U | 0.1 |

| Variant | self-cleavage |
| --- | --- |
| G7C C8G G22C G30A G35U | 0.06 |
| G7C C10U G27C A41U | 0.01 |
| G7C A12G A24C U32G G33A | 0.42 |
| G7C C8U U9A | 0.06 |
| G7C C31U C37G A41G C42A | 0 |
| G7C C15U A25G C45G | 0.02 |
| G7C G19U U32A | 0.12 |
| G7C G21U C31A | 0.08 |
| G7C A12G C18A U28C G44A | 0 |
| G7C C31U G44A | 0.01 |
| G7C C10G G17U G21U | 0.03 |
| G7C C10U A12U G29A C42A C45U | 0.01 |
| G7C C8A C13U A26C C42A | 0.21 |
| G7C C8U A12C | 0.02 |
| G7C C13U U28G G30U | 0.02 |
| G7C C18A C46G | 0.06 |
| G7C G35C G44A C46U | 0.08 |
| G7C C23G G33A C42A | 0.03 |
| G7C C8A G36C | 0.28 |
| G7C G22U G30A G44A | 0.11 |
| G7C C13U G33A C46U | 0.13 |
| G7C G33C G40A U43A G44U | 0.04 |
| G7C G29A G36A C42A | 0.06 |
| G7C U32C G44A | 0.05 |

| Variant | self-cleavage |
| --- | --- |
| G7C A24G G44U | 0.05 |
| G7C G33U C46A | 0.06 |
| G7C G17U A25C G27U G35A G44C | 0.12 |
| G7U A12G G17C U20G C31U G44C C46U | 0.05 |
| G7C C13A C37A | 0.07 |
| G7U A12C A14U C42G G44U | 0.03 |
| G7C U20G U38C | 0.07 |
| G7C C8G C18G C23A C31U | 0.08 |
| G7C G27C C37G A39C | 0.02 |
| G7C A14C C23G A25U | 0.02 |
| G7U A11G A16U G19C C31G G36A A41C | 0.01 |
| G7C G27A C46A | 0.41 |
| G7C C13U G21A G27C G30U G36C | 0.31 |
| G7C A12U G27U G29C | 0.02 |
| G7C C10G A41U G44U | 0.01 |
| G7C G17U A39C | 0.45 |
| G7C C13A C15G C31G | 0.03 |
| G7U A12G A16U U20C C45G | 0.11 |
| G7C A14U C15U C37A G44U | 0.24 |
| G7U A11U C42G U43A | 0.01 |
| G7C A12U G19C U32A U38C | 0.01 |
| G7C C10G G27U | 0.01 |
| G7C A16G G21A C46A | 0 |
